# From the supplement of paper PMC3334620
# The full ranking holds about 33,000 sequences; the median of “E-score (-0.5 to 0.5)” is about -0.056, and the highest 2% start at about 0.38. This is one part of the list.
# Biological target: Stb4 (UniProt P50104)
# Assay: PBM E-score (8-mer binding enrichment) (E-score (-0.5 to 0.5)); higher = stronger / more preferred TF binding; most listed sequences are background and not binding sites
# Conditions: protein concentration: 200 nM; construct: GST-DNA-binding domain
# Procedure: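 Universal 'all 10-mer' protein binding microarrays (Agilent AMADID 015681) probed with GST-tagged S. cerevisiae TFs (full-length or DBD) made by in vitro transcription/translation (PURExpress), about 100-200 nM. Bound TF was detected with fluorescent anti-GST. Each ungapped 8-mer (which stands for itself and its reverse complement) is scored by the PBM enrichment score (E-score), a modified Wilcoxon-Mann-Whitney statistic from -0.5 to +0.5, computed with the Universal PBM Analysis Suite. Scale: above 0.35 generally sequence-specific binding.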
row,Sequence,PBM E-score
1,CATAGCAG,-0.259
2,GGTCGACA,-0.137
3,ACGAGCTC,0.0375
4,GATACCAC,0.137
5,TGTCTGAA,0.0284
6,ACCATTCC,0.198
7,ACGGACAG,-0.00252
8,AAAGAACG,0.0191
9,CTTTGTAA,-0.207
10,GAGCCGGA,0.348
11,AGCAAGGG,-0.0675
12,AACGTACC,0.0464
13,AGTAACCG,0.222
14,CGTTGGAA,0.0043
15,AACATTGC,-0.0246
16,CCTCCCCA,-0.0256
17,AACTCAGC,-0.0108
18,CGTAGGGA,-0.103
19,CAATGAAA,-0.161
20,GGGATTAC,0.0195
21,ATTCGGCC,0.271
22,GTCATCCA,-0.173
23,TATGCATA,-0.212
24,ACTTTCCA,0.0477
25,CATTTAGA,-0.00372

row,Sequence,PBM E-score
1,CTCAGAGA,-0.109
2,TGGTTAAA,-0.0509
3,CGCACATC,0.0014
4,CTCTCGTC,-0.0633
5,AAGGAACA,-0.101
6,AATGGCCG,0.171
7,ATATCGTG,-0.0515
8,GAAGTGCC,0.186
9,ACAGAGGG,-0.275
10,ATCAACCG,0.197
11,CCCCAGGC,-0.0392
12,ATTGTATC,-0.04
13,CTCACGGA,0.211
14,ACACTGCC,0.128
15,ATTGGGAC,0.0255
16,GTGAATAA,-0.153
17,AGGACCCT,-0.194
18,AGACACAA,-0.161
19,CGTAAAAA,0.0222
20,ATGCTTTG,-0.00495
21,ATAATTAT,0.0906
22,ATAAATGC,-0.165
23,CTTGTGCC,0.00595
24,ACCTTTCT,-0.204
25,CCTCTACC,0.0108

row,Sequence,PBM E-score
1,GTGTCCCA,0.0944
2,AGGTCGAG,-0.349
3,CAGCGAAC,-0.168
4,GGAGGCAA,-0.06
5,GCGCAATA,-0.058
6,ATCAGGGG,-0.228
7,AGAAGGGC,-0.0787
8,GGCACATA,0.00319
9,GGGCTGAA,-0.125
10,ATCGATTC,0.00194
11,CGTTGCCA,0.0133
12,CACACACG,0.11
13,AGAGATAA,-0.126
14,AGTTTTTC,0.149
15,CGTGGACC,0.0263
16,AACGCAGA,-0.103
17,ATCGGCTG,0.328
18,ACAAACCT,-0.0972
19,AATTTCAA,-0.148
20,GTAAGAAC,0.0227
21,CTCGTAAC,-0.107
22,TATCACGA,-0.138
23,ATATAAGG,0.119
24,CCATCAGG,-0.0466
25,GTAATATA,-0.0436

row,Sequence,PBM E-score
1,AACCTTCT,-0.0819
2,CGGGCACG,0.172
3,ACTGGGCA,-0.101
4,ACGTCGCA,-0.234
5,GTATGCTA,-0.106
6,CCGCTAGG,0.00559
7,CACCACAA,-0.0566
8,CCGCCGCA,0.0672
9,CGTCCACA,-0.0708
10,CTCTCATC,-0.0925
11,CCCGGATA,0.429
12,CGGATCAA,0.401
13,CGGACACC,0.0845
14,TAGTCTGA,-0.23
15,AGCGGAGC,0.0851
16,GGGCGTTA,-0.0608
17,GTCCGACA,0.213
18,GGCAAATA,0.208
19,CATCGGGA,0.331
20,ACACCGAC,0.119
21,ATGATTTA,-0.111
22,GTCCCATA,-0.129
23,CAGGAGGG,-0.158
24,GCAACCAA,-0.0398
25,CTTCCCAC,0.0645

row,Sequence,PBM E-score
1,ATCGACGG,0.0801
2,TCAACGCA,-0.189
3,GACCCTCC,0.133
4,AGAACTAA,0.0219
5,GGAACACC,0.146
6,GACGGTGA,-0.18
7,CCATTCGA,-0.154
8,CGTAGAGC,-0.0218
9,AAGATGTA,-0.299
10,CATAATTA,-0.0337
11,CTCCGAGC,0.428
12,ACGGGTTC,0.0648
13,ACCCTAAT,-0.335
14,GGCTCTAC,0.0648
15,TAAGACAA,-0.0198
16,AGTTTACA,-0.0886
17,AGCTACAG,-0.0607
18,AAATCCAT,-0.0925
19,ATGTGAAT,0.0167
20,CCAAGCGC,-0.0525
21,AAAGAAGC,-0.0836
22,CCTCCTTC,0.0231
23,ACAGCGCA,-0.205
24,ATACGGAT,0.311
25,ATCCGGCG,0.368

row,Sequence,PBM E-score
1,GACGTGGA,-0.159
2,AAGTAGCC,0.133
3,GCGAATTA,0.0154
4,AGAGAGAC,-0.214
5,AACATTTC,-0.091
6,GAGCTTGC,-0.0865
7,ACAATTGG,-0.247
8,CCGACTCC,0.32
9,GGTAATCA,0.129
10,CTTGCGTC,-0.226
11,TAAAAGGA,-0.0133
12,CCGACCGA,0.363
13,CTACCCCC,-0.081
14,GAGCCGCA,0.0237
15,AGGTACCG,0.254
16,CGAATTGC,0.114
17,GGACTATA,-0.0847
18,GAATCTGC,0.18
19,TCGCGGAA,0.315
20,GGACTGCC,-0.0264
21,ATTAGCAC,0.00903
22,ATTCTTAA,-0.00821
23,CCGGGAAC,0.381
24,ATCGGGTC,0.325
25,CAGCACTC,-0.236

row,Sequence,PBM E-score
1,CATCGCCG,0.129
2,ACCCCTTC,-0.0573
3,CCACCGGC,0.121
4,GATTTTGC,-0.0616
5,GCGACACC,-0.0246
6,CGTCTTTA,-0.0915
7,CCCTTGCC,-0.146
8,TCGTCAGA,-0.111
9,GGCGAGGA,-0.104
10,AGGATAGG,-0.239
11,GAGTTATA,-0.11
12,CCCTTTTA,-0.172
13,CGGACTAG,0.196
14,GCCATACC,-0.0292
15,GCGAGAGA,-0.206
16,CGTTAGAG,0.0598
17,ATGTGGTA,0.0112
18,GAGGACAC,0.0478
19,ACCTCCAC,0.0218
20,ACTGATCT,-0.0326
21,GCGGCAAC,0.183
22,ACATGCGA,-0.0931
23,GCTATCCA,0.0683
24,TCTATAAA,-0.117
25,CCCATGCA,-0.206

row,Sequence,PBM E-score
1,ACAACTAT,-0.00435
2,CATCTTAC,-0.257
3,AGCATAGG,-0.255
4,ACACTAGA,-0.217
5,CGGATATC,0.426
6,ATAGTCGA,-0.148
7,AAGTAGGC,-0.0522
8,AGATGCCG,0.286
9,AGGGGATG,-0.0701
10,ACGATGGA,-0.0923
11,ATTGATGA,0.0235
12,CGGCCCAA,0.173
13,CGGAACCA,0.41
14,ACCGCGAG,-0.0863
15,TTAGTAAA,0.0263
16,GACTAGCC,-0.0648
17,GCCCTTTA,-0.174
18,GCTTGTTA,-0.0811
19,AATAAGCT,-0.0963
20,ACCACCAT,0.0364
21,GATTTAAA,-0.105
22,CGTCTTGC,0.125
23,TTCACGAA,-0.257
24,ATGGCTTA,-0.0952
25,ACCTATCG,0.0705

row,Sequence,PBM E-score
1,TACTTTAA,-0.117
2,ACAAGGGG,-0.0735
3,AGGGCTTC,-0.16
4,GGCCGATA,0.171
5,ATCAAGAT,-0.0843
6,GCCATTAC,-0.0125
7,CAGGCCCC,-0.152
8,CCAATATA,-0.0487
9,CATTCCGG,0.358
10,GCTATAGC,-0.096
11,CCCCAGTC,-0.053
12,CAGCAATA,-0.144
13,AAGCTAGG,0.0266
14,AGCCGAGA,0.436
15,GGCACCCC,-0.106
16,CTGCGAAG,-0.272
17,AACAGAGC,-0.0496
18,ATAGACGC,0.00559
19,CCGCTGCA,-0.0547
